Reference: article PMC4336329 (PLoS ONE, 2015)
Out of some 310,000 compounds screened, about 14,000 (4.5%) showed an effect of 50% or more. The effect is printed as a negative number. The list shows a part of the results. Where a SMILES comes first, the peptide text is derived from it. [ ]: non-standard residue; d: D form. The star is where a group is joined. Phe(4-Me) = Cc1ccc(C[CH](N)C(=O)O)cc1; Bz = O=C(c1ccccc1)*

Target: human ether-à-go-go-related gene (hERG) potassium channel (human, UniProt Q12809)
Sequence (Q12809 whole entry, looked up): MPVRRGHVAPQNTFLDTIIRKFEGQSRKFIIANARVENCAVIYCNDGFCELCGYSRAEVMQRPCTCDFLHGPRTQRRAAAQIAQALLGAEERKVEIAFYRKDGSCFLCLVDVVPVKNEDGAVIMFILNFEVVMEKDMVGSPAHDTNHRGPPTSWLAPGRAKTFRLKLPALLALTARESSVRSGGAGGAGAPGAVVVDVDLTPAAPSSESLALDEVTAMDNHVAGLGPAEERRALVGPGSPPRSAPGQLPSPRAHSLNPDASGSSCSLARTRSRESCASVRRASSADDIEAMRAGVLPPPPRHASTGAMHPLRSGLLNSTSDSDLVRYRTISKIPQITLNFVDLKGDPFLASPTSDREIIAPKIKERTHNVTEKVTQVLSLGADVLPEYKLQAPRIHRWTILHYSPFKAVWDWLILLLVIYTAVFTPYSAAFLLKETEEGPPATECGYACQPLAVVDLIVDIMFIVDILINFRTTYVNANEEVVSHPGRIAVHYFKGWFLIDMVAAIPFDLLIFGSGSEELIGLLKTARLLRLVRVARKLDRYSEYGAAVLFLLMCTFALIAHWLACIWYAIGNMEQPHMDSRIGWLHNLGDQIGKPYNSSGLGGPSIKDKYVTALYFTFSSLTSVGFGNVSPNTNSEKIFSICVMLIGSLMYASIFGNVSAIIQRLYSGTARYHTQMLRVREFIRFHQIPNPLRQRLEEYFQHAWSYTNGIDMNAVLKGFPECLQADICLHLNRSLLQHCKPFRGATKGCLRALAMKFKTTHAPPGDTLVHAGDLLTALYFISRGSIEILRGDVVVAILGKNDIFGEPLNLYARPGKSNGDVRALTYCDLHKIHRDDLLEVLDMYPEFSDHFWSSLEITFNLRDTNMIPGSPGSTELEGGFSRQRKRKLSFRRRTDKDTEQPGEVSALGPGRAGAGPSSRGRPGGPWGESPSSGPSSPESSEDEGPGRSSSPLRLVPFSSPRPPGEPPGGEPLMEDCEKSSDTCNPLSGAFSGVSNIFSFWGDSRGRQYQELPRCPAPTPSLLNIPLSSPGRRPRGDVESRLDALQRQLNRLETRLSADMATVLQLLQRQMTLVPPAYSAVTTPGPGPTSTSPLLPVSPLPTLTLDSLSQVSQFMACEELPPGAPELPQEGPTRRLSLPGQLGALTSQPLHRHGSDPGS
Assay: primary screen, population patch clamp on CHO cells stably expressing hERG
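Also: peak tail current of the secondary pulse compared with the same well before compound.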

Row | Compound | hERG current change (%, negative = inhibition) at 10uM
1 | CCN(CC)C(=O)C1CCCN(Cc2ccccc2)C1 (stereo not drawn) | 9.57%
2 | CCNc1nc(NCC)n2c(SCC(=O)Nc3ccc(Br)cc3F)nnc2n1 | -30.3%
3 | COc1cc(S(=O)(=O)n2cnc(C)c2)ccc1Br | 9.77%
4 | CC(=O)Nc1ccc(S(=O)(=O)N(Cc2ccccc2)c2ccccc2F)cc1 | 12.8%
5 | COc1ccccc1-c1nnc(SCC(=O)N2CCOCC2)o1 | -1.56%
6 | Cc1noc(C)c1CSCC(=O)Nc1nc2c(F)cc(F)cc2s1 | 4.47%
7 | CCOCCc1nnc(NC(=O)C2CC(=O)N(c3ccc(OCC)cc3)C2)s1 (stereo not drawn) | -18.1%
8 | Cc1ccc(S(=O)(=O)Oc2ccc3c(c2)O/C(=C\c2cccnc2)C3=O)cc1 | 1.51%
9 | CCOC(=O)c1sc(NC(=O)c2cccnc2)nc1C | 16.8%
10 | Cc1cccc(N(CC(=O)NC2CCCC2)C(=O)CNC(=O)c2ccco2)c1C | 19.2%
11 | COc1ccccc1-c1nnc(SCC(=O)Nc2ccc(S(N)(=O)=O)cc2)n1N | -7.19%
12 | Cc1ncoc1C(=O)NCCC(c1ccccc1)c1ccccc1 | -1.86%
13 | COc1cc(OC)cc(-c2c(-c3ccc(F)cc3)c3cc(-c4cccc5[nH]ccc45)ccc3n2C)c1 | 7.74%
14 | Cc1nnc(NC(=O)CSc2nnc(CC(=O)Nc3ccccc3F)n2C)s1 | -4.32%
15 | CCC1CCCCN1CCCNC(=O)CCC(=O)N1CCOc2ccccc21 (stereo not drawn) | -15.6%
16 | O=C(Nc1ccccc1C(=O)O)c1ccc(NC(=O)C2CCCCC2)cc1 | 4.77%
17 | CC(=O)N[C@@H](Cc1ccc(OC(F)(F)F)cc1)C(=O)O | 13.3%
18 | CC(C)NC(=O)CSc1nnc(-c2ccc3ncccc3c2)n1C | 19%
19 | COc1ccc(CCNC(=O)C2CC(c3c(Cl)cccc3Cl)=NO2)cc1 (stereo not drawn) | -26%
20 | CCC(C)n1c(O)c(C=NCC2CCCO2)c(=O)[nH]c1=S (stereo not drawn) | 4.05%
21 | CC(=O)Nc1cccc(NC(=O)C2CC(=O)N(CCc3ccc(F)cc3)C2)c1 (stereo not drawn) | 5.99%
22 | CCOC(=O)C1CCN(S(=O)(=O)c2cn(C)c(C)n2)CC1 | 21.3%

Row | Compound | hERG current change (%, negative = inhibition) at 10uM
23 | Cc1ccc(C)c(Sc2ccc(NC(=O)CCN3C(=O)NC4(CCCC4)C3=O)cc2)c1 | -10.3%
24 | Cn1c(CNC(=O)C2CCC(=O)N(CCc3cccc(F)c3)C2)nc2ccccc21 (stereo not drawn) | -26.2%
25 | COC(=O)C1CC(O)CN1C(=O)c1ccco1 (stereo not drawn) | 10.6%
26 | COc1ccccc1CNC(=O)COc1ccc(Br)c(C)c1 | -3.95%
27 | CC1=CC(C)(C)N(C(=O)CNC2CCCC2)c2cc(C)ccc21.O=C(O)C(=O)O | 9.74%
28 | C1=Nc2ccccc2CN1c1ccccc1.Cl | -18.1%
29 | Cc1ccc(/C=N/n2c(-c3ccncc3)n[nH]c2=S)o1 | 8.31%
30 | CC(C)=CCc1c(-c2ccc(O)cc2O)oc2c3c(cc(O)c2c1=O)OC(C)(C)C=C3 | 17.6%
31 | COc1ccc2sc(N(CCN(C)C)C(=O)c3ccc4ccccc4c3)nc2c1.Cl | -0.0157%
32 | CCOC(=O)N1CCC(NC(=O)c2cc(S(=O)(=O)N3CCC4(CC3)OCCO4)ccc2F)CC1 | -6.9%
33 | Cn1c(CNc2nc(-c3ccccc3)cs2)nnc1SCC(=O)c1ccccc1 | -6.96%
34 | CC1CCc2c(sc3ncnc(NS(=O)(=O)c4cccs4)c23)C1 (stereo not drawn) | 15.9%
35 | COCc1[nH]nc2c1C(c1cccc(OC)c1)C(C#N)=C(N)O2 (stereo not drawn) | -7.26%
36 | COc1ccc(N2C(=O)C(C)(C)C2c2c(O)ccc3ccccc23)cc1 (stereo not drawn) | 26.9%
37 | CCc1ccc(NC(=O)C2CCN(S(C)(=O)=O)CC2)cc1 | 2.73%
38 | O=c1c2sc(-c3ccccc3)cc2nc2n1CCC2 | -9.78%
39 | CCCCC(=O)N(Cc1ccc(-c2ccccc2-c2nn[nH]n2)cc1)[C@H](C(=O)O)C(C)C | 20.5%
40 | NC(=O)CSc1nnnn1-c1cccc(Cl)c1 | 12%
41 | CCCCC(=O)Nc1ccc(C)c(S(=O)(=O)N2CCCCCC2)c1 | -40.6%
42 | OCC1(Cc2ccccc2C(F)(F)F)CCN(Cc2ccncc2)CC1 | -13.8%
43 | O=C(NCc1ccc(Cl)cc1)C(=O)NCC1OCCN1S(=O)(=O)c1cccs1 (stereo not drawn) | -3.4%
44 | CCOC(=O)C1(CC2CCCCO2)CCN(C(=O)Nc2ccccc2SC)CC1 (stereo not drawn) | 3.42%

Row | Compound | hERG current change (%, negative = inhibition) at 10uM
45 | Cc1ccc(NC(=O)O/N=C/c2c(C)nn(C(C)(C)C)c2C)cc1Cl | -8.04%
46 | CC(C)(C)OC(=O)NOCC(=O)N(Cc1ccccc1)CC(O)COc1ccccc1 (stereo not drawn) | -0.0122%
47 | O=C(CNC(=O)c1ccccc1F)N/N=C\C=C\c1ccccc1 | 3.76%
48 | N#Cc1ccc(NC(=O)Cn2cnc(S(=O)(=O)N3CCCCC3)c2)cc1 | 13.3%
49 | C=CCNc1nc(Cl)nc(Nc2ccc([N+](=O)[O-])cc2)n1 | 6.9%
50 | COc1ccc([N+](=O)[O-])c(OC)c1C(=O)NC(=O)Nc1c(C)cccc1C | 5.84%
51 | CCOc1ccccc1NS(=O)(=O)c1ccc2[nH]c(=O)[nH]c2c1 | 14.9%
52 | Cc1coc2c(C)c3oc(=O)cc(-c4ccccc4)c3cc12 | 9.59%
53 | O=C(N/N=C/c1c[nH]c2ccccc12)c1ccccc1 | 18.8%
54 | C=CCSc1nnc2c(n1)-c1cccc3cccc-2c13 | 1.84%
55 | COc1cccc2cc(C(=O)C3=C(O)C(=O)N(CCN4CCOCC4)C3c3cccc(Cl)c3)oc12 (stereo not drawn) | 16.4%
56 | O=C(NCCc1ccccc1)c1ccccc1NC(=O)C1CCCCC1C(=O)O (stereo not drawn) | 2.78%
57 | COc1ccc(-n2c(SCc3ccc([N+](=O)[O-])cc3)nnc2-c2ccc(C)cc2)cc1 | 1.03%
58 | CCN(CC(=O)NCCc1ccccc1)S(=O)(=O)c1ccc(Br)cc1 | -32.3%
59 | COc1ccc(OC)c(CC(=O)O)c1 | 10.8%
60 | CCOc1ccc(NC(=O)CSc2nc3ccsc3c(=O)n2CCC(=O)O)cc1 | 0.362%
61 | CCOc1ccc(N2C(=O)CC(Sc3nc(CC(C)C)ccc3C#N)C2=O)cc1 (stereo not drawn) | 16.6%
62 | COc1cccc(NC(=O)CN(C)C(=O)CCNS(=O)(=O)c2ccc(C)cc2)c1 | -4.63%
63 | C=CCN1C(=O)C(C)(C)Nc2ccccc21 | 6.7%
64 | O=C1CCC(=O)N1CC1CC2CCC1C2 (stereo not drawn) | 8.48%
65 | COc1ccc(S(=O)(=O)NCC(c2ccco2)N2CCc3ccccc32)cc1 (stereo not drawn) | -24.3%
66 | CCOC(=O)NC(=O)CN1C(=O)NC2(CCc3ccccc32)C1=O (stereo not drawn) | 20.8%

Row | Compound | hERG current change (%, negative = inhibition) at 10uM
67 | CC(C)(C)C(=O)COC(=O)c1cc(-c2ccncc2)nc2ccccc12 | -8.43%
68 | COCC1=C(C(=O)OC)C(c2cccs2)n2ncnc2N1 (stereo not drawn) | 12.2%
69 | COc1cc(NC(=O)C2CCCN2S(=O)(=O)c2ccc3c(c2)CC(C)N3C(C)=O)cc(OC)c1 (stereo not drawn) | -47.9%
70 | CC(C)(CNC(=O)c1ccc(NS(=O)(=O)c2ccc(F)cc2)cc1)N1CCOCC1 | -0.466%
71 | C=CCN(c1ccccc1Cl)S(=O)(=O)c1cccc(C(=O)NCCc2ccc(OC)cc2)c1 | 3.82%
72 | Cc1nc2ccc(NC(=O)N3CCC(c4ccccc4)C3)cc2nc1C (stereo not drawn) | -11.4%
73 | O=C(NCc1nnc2c(C(F)(F)F)cc(Cl)cn12)c1cccs1 | -5.07%
74 | O=C(c1ccc(Oc2ccc([N+](=O)[O-])cc2Cl)cc1)N1CCCC1 | -32.2%
75 | CCOc1cc(/C=N/NC(=O)CN2CCCCC2)ccc1O | -5.51%
76 | Cc1noc(NS(=O)(=O)c2ccc(NC(=O)CCN3C(=O)c4ccccc4C3=O)cc2)c1C | 10.6%
77 | COc1ccc(CNC2CCN(Cc3ccccc3)CC2)cc1 | -54.2%
78 | CCOC(=O)C1=C(C)NC2=C(C(=O)C(C(=O)OCC)C(c3ccc(OC)cc3)C2)C1c1ccccn1 (stereo not drawn) | 12.8%
79 | COc1ccc(C)cc1NC(=O)C/C(C)=N/NC(=O)Cc1cccc2ccccc12 | 7.97%
80 | CCOc1ccc(C(=O)c2cc([N+](=O)[O-])ccc2Cl)cc1 | -15.6%
81 | COc1ccc(-n2c(COc3cccc(C)c3)nnc2SCC(=O)O)cc1 | 20.7%
82 | CCNC(=S)NCc1ccc(F)cc1 | 5.03%
83 | COc1ccccc1CNC(=O)COC(=O)Cc1ccc(Cl)cc1 | 8.51%
84 | O=C(NC1CCS(=O)(=O)C1)c1cn(-c2ccccc2)nc1-c1ccccc1 (stereo not drawn) | -4.04%
85 | CCc1nnc(NC(=O)c2ccc(COc3ccccc3Cl)o2)s1 | 20.3%
86 | COc1ccccc1OCCOc1ccc(/C=C2/C(=N)N3OC(C)=CC3=NC2=O)cc1OC | -12.5%
87 | Cc1ccc(CC(NC(=O)c2ccccc2)C(=O)NC(CC(C)C)C(=O)O)cc1 (stereo not drawn) (Bz-[Phe(4-Me)]-Leu-OH; configuration not given here) | 16.7%
